# Laboratory results reported in the supplement of paper PMC3334620.
# Whole data set: some 33,000 sequences, median “E-score (-0.5 to 0.5)” near -0.011, cut for the highest 2% near 0.28. The list shows a part of the results.
# Target: T1, Gcr1 (UniProt P07261)
# T1 sequence: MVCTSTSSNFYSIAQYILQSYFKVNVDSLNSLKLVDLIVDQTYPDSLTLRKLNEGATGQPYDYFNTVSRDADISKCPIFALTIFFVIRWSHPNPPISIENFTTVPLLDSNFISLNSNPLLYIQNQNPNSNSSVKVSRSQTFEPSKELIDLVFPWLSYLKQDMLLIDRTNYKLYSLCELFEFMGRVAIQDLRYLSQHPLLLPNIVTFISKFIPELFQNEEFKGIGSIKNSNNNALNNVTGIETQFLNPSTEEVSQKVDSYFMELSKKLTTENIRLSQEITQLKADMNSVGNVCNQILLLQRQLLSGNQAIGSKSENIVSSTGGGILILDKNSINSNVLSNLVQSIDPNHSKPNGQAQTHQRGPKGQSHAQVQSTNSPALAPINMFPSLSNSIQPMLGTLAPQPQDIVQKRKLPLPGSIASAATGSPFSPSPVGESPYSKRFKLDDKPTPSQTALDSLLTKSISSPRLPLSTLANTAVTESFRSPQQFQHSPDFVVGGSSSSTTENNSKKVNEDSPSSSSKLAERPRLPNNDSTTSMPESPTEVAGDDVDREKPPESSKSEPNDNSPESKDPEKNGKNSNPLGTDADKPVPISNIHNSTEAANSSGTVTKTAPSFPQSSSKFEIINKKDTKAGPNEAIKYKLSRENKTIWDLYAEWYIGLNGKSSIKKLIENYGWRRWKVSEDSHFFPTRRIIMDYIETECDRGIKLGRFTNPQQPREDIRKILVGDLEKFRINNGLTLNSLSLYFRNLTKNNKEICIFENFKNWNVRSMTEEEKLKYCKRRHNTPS
# Test: PBM E-score (8-mer binding enrichment) (E-score (-0.5 to 0.5)); higher = stronger / more preferred TF binding; most listed sequences are background and not binding sites
# Conditions: protein concentration: 100 nM; construct: GST-full length
# Outline: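 Masliner-normalised scans of fluorescent anti-GST signal were the basis for scoring. That signal came from GST-tagged yeast transcription factors applied at about 100-200 nM to double-stranded universal all-10-mer Agilent arrays on fresh or once-stripped slides. Each ungapped eight-base word, pooled with its reverse complement, received an E-score from the Universal PBM Analysis Suite.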
row,Sequence,PBM E-score
1,ACACACCT,-0.012
2,CATAAGTA,0.188
3,CGGACGCA,0.0459
4,ATATTACG,0.091
5,CCACCCCA,0.116
6,ATTTATAG,-0.0198
7,AATGATCG,-0.182
8,AGCTTGTC,-0.128
9,ACCACGAG,-0.0324
10,CGCCTCGC,-0.00832
11,CGCCCGTA,0.125
12,CATTAGAA,0.0456
13,ACTTACTC,-0.243
14,ACTATGAT,-0.0815
15,ACATTAGC,0.148
16,GCACGGCC,-0.128
17,ATGGGACA,0.0104
18,GAGGCCAA,-0.00152
19,AATTGAGA,0.147
20,CCGATTAC,-0.0535
21,CAGGACAG,0.0268
22,ATCAAATC,0.0142

row,Sequence,PBM E-score
1,ACCAGTAT,0.278
2,GGGCACCC,0.321
3,AAGAAACA,0.0455
4,TACCACTA,0.365
5,AAATTTCA,0.0803
6,ACTGGGTA,0.0422
7,ATCTTATG,0.093
8,ACCTGGCA,-0.0308
9,CGTTTCAA,-0.0791
10,ATTGGATA,0.00978
11,TGCTAACA,0.0488
12,AATATCGT,0.26
13,GTAGACCA,-0.167
14,AGAATACA,-0.0397
15,GATGGCGA,-0.175
16,CGGGAGGA,-0.155
17,AGGGCAGG,-0.173
18,ATCGGCCG,-0.15
19,ACAAAGGA,0.00803
20,CTCCAATA,0.075
21,CAATTAGG,0.223
22,AGACGTCG,0.117

row,Sequence,PBM E-score
1,GACGGTAA,0.0114
2,CACCTATA,0.0595
3,TACACTGA,-0.0218
4,GCCCTGAC,0.0741
5,ACATTCGT,-0.0774
6,AGTATCGG,-0.0989
7,TCACACGA,-0.0736
8,ATGATTAA,0.0525
9,ACAGACTG,-0.139
10,GAAGCGAA,0.133
11,AACGGGGT,-0.0406
12,CCCTCAAA,-0.236
13,GTGAGAAC,-0.0123
14,CACTGAGC,-0.00627
15,AGGGATCA,-0.054
16,ATTAATTC,0.0449
17,AGCAACCC,0.00142
18,GTAAAGAC,-0.129
19,GTCATGGA,-0.0358
20,TAGCCGCA,-0.115
21,AAAGGACA,-0.132
22,AGAAAACA,-0.00733

row,Sequence,PBM E-score
1,CGGAAACC,0.0955
2,ACAAATGC,-0.107
3,CATTGTGG,0.172
4,ATTCATTA,0.0907
5,TCCCAGCA,0.0476
6,CATCGTTA,-0.109
7,GACCTCAC,-0.247
8,AGGCCTAC,-0.13
9,CGGTTAAC,-0.0371
10,ATATCCTG,-0.0238
11,AACAGATT,0.0831
12,CGGGTTTC,0.0736
13,AAGCCGTG,0.0549
14,CGGTATAA,0.0683
15,CGTTAAGC,-0.0745
16,GGCTTACC,-0.18
17,AAAACACT,0.0406
18,CTTCACTC,-0.132
19,GCTATCTA,-0.0201
20,ACCTCTTC,0.00428
